# The other results are listed elsewhere or left out. Single values of this set are uncertain. Values with irradiation are relative to irradiated vehicle.
# Assays:
# A549-Dual [1] = assay: NF-kB reporter (SEAP) activity, viability-corrected, relative to vehicle (fold change vs vehicle); higher = more activation of STING-IRF / NF-kB immune response reporter; details: 10 µM
# A549-Dual [2] = assay: ISRE reporter (Lucia luciferase) activity, viability-corrected, relative to vehicle (fold change vs vehicle); higher = more activation of STING-IRF / NF-kB immune response reporter; details: 10 µM
# 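For NF-kB reporter (SEAP) activity, viability-corrected, relative to vehicle in this document: viability correction based on the alamar blue assay, with concentrations leaving 10% survival or less dropped.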
SMILES,NF-kB reporter (A549-Dual [1]; irradiation: 8 Gy/4 fr),NF-kB reporter (A549-Dual [1]; irradiation: none),ISRE reporter (A549-Dual [2]; irradiation: 8 Gy/4 fr),ISRE reporter (A549-Dual [2]; irradiation: none)
CC(=O)OCC1=C(C(=O)[O-])N2C(=O)C(NC(=O)Cc3cccs3)C2SC1.[Na+] (stereo not given) [Cephalothin],0.746,0.992,0.69,0.746
C=CCN1CCCC1CNC(=O)c1cc2nn[nH]c2cc1OC.Cl (stereo not given) [Alizapride HCl],0.798,0.975,0.702,0.504
Cl.N=C(N)NCCC[C@H](N)C(=O)O [L-Arginine HCl (L-Arg)],0.877,1.35,0.757,0.876
O=C(O)Cc1ccc(-c2ccccc2)cc1 [4-Biphenylacetic acid],0.883,1.01,0.912,0.78
[Cl][Mn][Cl] [Manganese chloride],0.608,0.575,0.78,0.653
Nc1ncnc2c1ncn2C1OC(CO)C(O)C1O (stereo not given) [Vidarabine],0.71,1.03,0.758,0.983
CCCc1nn(C)c2c(=O)[nH]c(-c3cc(S(=O)(=O)N4CCN(C)CC4)ccc3OCC)nc12.CS(=O)(=O)O [Sildenafil Mesylate],0.8,0.976,0.867,0.858
Cc1ccc(S(=O)(=O)O)cc1.NC1CCN(c2nc3c(cc2F)c(=O)c(C(=O)O)cn3-c2ccc(F)cc2F)C1.O (stereo not given) [Tosufloxacin p-Toluenesulfonate Hydrate],1,1,1.03,0.863
CC(C)(O)c1ccccc1CCC(SCC1(CC(=O)[O-])CC1)c1cccc(/C=C/c2ccc3ccc(Cl)cc3n2)c1.[Na+] (stereo not given) [Montelukast Sodium],0.57,0.498,0.762,0.508
O=C1CN(/N=C/c2ccc([N+](=O)[O-])o2)C(=O)N1 [Nitrofurantoin],0.85,0.928,0.858,0.772
"CC(C)C12CCC(C)(CC1)O2 [1,4-Cineole]",0.891,0.859,0.824,0.545
O=C([O-])c1ccccc1.[Na+] [Sodium benzoate],0.732,1.13,0.649,0.819
Cc1onc(-c2c(F)cccc2Cl)c1C(=O)NC1C(=O)N2C1SC(C)(C)C2C(=O)[O-].[Na+] (stereo not given) [Flucloxacillin sodium],0.802,0.788,0.778,0.672
CCN1CCN(C(=O)NC(C(=O)NC2C(=O)N3C2SC(C)(C)C3C(=O)[O-])c2ccccc2)C(=O)C1=O.[Na+] (stereo not given) [Piperacillin Sodium],0.867,1.39,0.794,0.998
CC(CCC(=O)O)C1CCC2C3CCC4CC(O)CCC4(C)C3CCC12C (stereo not given) [Lithocholic acid],0.7,0.438,0.597,0.394
CC1COc2c(N3CCN(C)CC3)c(F)cc3c(=O)c(C(=O)O)cn1c23 (stereo not given) [Ofloxacin],0.768,0.823,0.765,0.875
COc1c(N2CC3CCCNC3C2)c(F)cc2c(=O)c(C(=O)O)cn(C3CC3)c12 (stereo not given) [Moxifloxacin],0.79,0.926,0.694,0.688
COc1c(N2CCNC(C)C2)c(F)cc2c(=O)c(C(=O)O)cn(C3CC3)c12 (stereo not given) [Gatifloxacin],0.701,0.855,0.63,0.655
CC(C)NC(=N)NC(=N)Nc1ccc(Cl)cc1 [Proguanil],0.647,0.928,0.607,0.818
Cc1ccnc(NS(=O)(=O)c2ccc(N)cc2)n1 [Sulfamerazine],0.863,1.03,0.799,0.723
CC(C)=CCCC(C)CC=O (stereo not given) [Citronellal],1.07,0.735,1.09,0.744
Cc1ccc(C)c(OCCCC(C)(C)C(=O)O)c1 [Gemfibrozil],0.999,0.927,1.28,0.954
COc1ccc(/C=C\c2cc(OC)c(OC)c(OC)c2)cc1O [Combretastatin A4],1.27,1.35,0.16,0.364
Cc1nccn1CCC(C(N)=O)(c1ccccc1)c1ccccc1 [Imidafenacin],0.473,0.743,0.482,0.594
Cl.N=C(N)N [Guanidine HCl],0.922,0.801,1.11,0.83
O=C(O)C(S)C(S)C(=O)O (stereo not given) [Succimer],0.641,0.755,0.6,0.629
OCc1ccccc1 [Benzyl alcohol],1.02,0.703,0.919,0.538
COc1cc(N)c(Cl)cc1C(=O)NC1CCN(CCCOc2ccc(F)cc2)CC1OC.O (stereo not given) [Cisapride hydrate],0.851,0.849,0.81,0.587

SMILES,NF-kB reporter (A549-Dual [1]; irradiation: 8 Gy/4 fr),NF-kB reporter (A549-Dual [1]; irradiation: none),ISRE reporter (A549-Dual [2]; irradiation: 8 Gy/4 fr),ISRE reporter (A549-Dual [2]; irradiation: none)
CCCC(NC(=O)C1C2CCCC2CN1C(=O)C(NC(=O)C(NC(=O)c1cnccn1)C1CCCCC1)C(C)(C)C)C(=O)C(=O)NC1CC1 (stereo not given) [Telaprevir (VX-950)],0.441,0.996,0.438,1.11
CCCCS(=O)(=O)NC(Cc1ccc(OCCCCC2CCNCC2)cc1)C(=O)O.Cl.O (stereo not given) [Tirofiban Hydrochloride],0.757,1.25,0.623,0.613
O=c1cc(-c2ccccc2)oc2cc(O)c(O)c(O)c12 [Baicalein],0.541,0.713,0.295,0.296
C=C(c1ccc(C(=O)O)cc1)c1cc2c(cc1C)C(C)(C)CCC2(C)C [Bexarotene],0.117,0.331,0.0596,0.298
CC(C)c1nc(N(C)S(C)(=O)=O)nc(-c2ccc(F)cc2)c1/C=C/C(O)CC(O)CC(=O)O (stereo not given) [Rosuvastatin],0.915,0.927,0.979,1.02
N[C@@H](Cc1c[nH]c2ccccc12)C(=O)O [L-Tryptophan],0.78,0.981,0.864,0.654
O=c1[nH]c(=O)n(C2CC(O)C(CO)O2)cc1I (stereo not given) [Idoxuridine],0.55,1.01,0.445,0.966
O=C(O)c1ccc(S(=O)(=O)N(Cl)Cl)cc1 [Halazone],1.03,1.2,0.807,1.23
CC(=O)SC1CC2=CC(=O)CCC2(C)C2CCC3(C)C(CCC34CCC(=O)O4)C12 (stereo not given) [Spironolactone],0.528,0.782,0.349,0.522
"C/C=C1/C2C=C(C)CC1(N)c1ccc(=O)[nH]c1C2 (single isomer, unassigned; (-)) [(-)-Huperzine A (HupA)]",1,1.14,0.842,0.618
CC1(C)SC2C(NC(=O)C(c3ccccc3)S(=O)(=O)[O-])C(=O)N2C1C(=O)[O-].[Na+].[Na+] (stereo not given) [Sulbenicillin Sodium],0.728,0.796,0.764,0.7
C[n+]1ccccc1/C=N/O.[I-] [Pralidoxime Iodide],1.02,1.15,0.891,0.736
CC(=O)O.CC(C)CC(NC(=O)C(COC(C)(C)C)NC(=O)C(Cc1ccc(O)cc1)NC(=O)C(CO)NC(=O)C(Cc1c[nH]c2ccccc12)NC(=O)C(Cc1cnc[nH]1)NC(=O)C1CCC(=O)N1)C(=O)NC(CCCN=C(N)N)C(=O)N1CCCC1C(=O)NNC(N)=O (stereo not given) [Goserelin Acetate],0.844,1.15,0.832,0.944
COc1ccc(C(=O)c2ccc(C)cc2)c(O)c1 [Mexenone],0.677,0.43,0.577,0.506
CC(C)[C@H](N)C(=O)O [L-Valine],1.15,0.775,1.1,0.673
O=C(NCCO[N+](=O)[O-])c1cccnc1 [Nicorandil],0.837,1.03,0.873,0.823
CCc1c(Cl)c(O)c(Cl)c(O)c1C(=O)OC1C(C)OC(OC/C2=C\C=C\CC(O)/C(C)=C\C(CC)C(OC3OC(C)(C)C(OC(=O)C(C)C)C(O)C3O)/C(C)=C/C(C)=C/CC(C(C)O)OC2=O)C(OC)C1O (stereo in doubt) [Fidaxomicin],1.57,2.54,1.11,5.98
Nc1ncnc2c1ncn2C1CC(O)C(CO)O1.O (stereo not given) [2'-Deoxyadenosine monohydrate],0.9,0.566,0.91,0.632
COC(=O)C1C2CC3c4[nH]c5cc(OC)ccc5c4CCN3CC2CC(OC(=O)c2cc(OC)c(OC)c(OC)c2)C1OC (stereo not given) [Reserpine],0.689,0.945,1.07,1.22
O=C(O)C(CO)c1ccccc1 (stereo not given) [Tropic acid],1.84,3.3,2.1,8.43
COC1C(OC(=O)/C=C/C=C/C=C/C=C/C(=O)O)CCC2(CO2)C1C1(C)OC1CC=C(C)C (stereo not given) [Fumagillin],0.658,0.924,0.537,0.828
OCC1OC(c2ccc(Cl)c(Cc3ccc(OC4CCOC4)cc3)c2)C(O)C(O)C1O (stereo not given),0.706,0.751,0.624,0.749
CC(=O)CCC(=O)O [Levulinic acid],0.929,0.845,0.747,0.698
CCn1cc(C(=O)O)c(=O)c2ccc(C)nc21 [Nalidixic acid],0.809,1.06,0.806,0.892
O=C(O)CNC(=O)c1ccccc1 [Hippuric acid],0.768,0.826,0.817,0.655
O=C1NS(=O)(=O)c2ccccc21 [Saccharin],1.02,0.706,0.905,0.525
CC1OC(OC2C(Oc3cc(O)c4c(c3)OC(c3ccc(O)cc3)CC4=O)OC(CO)C(O)C2O)C(O)C(O)C1O (stereo not given) [Naringin],0.723,0.698,0.824,0.591

# Reference: the supplement of paper PMC9174493
